Source: publication PMC4336329 (PLoS ONE, 2015)
In all, about 310,000 compounds went through this assay and about 2,200 (0.71%) showed an effect of 50% or more. The effect is printed as a negative number. Some of the results follow.

molecular target: human ether-à-go-go-related gene (hERG) potassium channel (human, UniProt Q12809); test: primary screen, population patch clamp on CHO cells stably expressing hERG
Sequence (Q12809 whole entry, looked up): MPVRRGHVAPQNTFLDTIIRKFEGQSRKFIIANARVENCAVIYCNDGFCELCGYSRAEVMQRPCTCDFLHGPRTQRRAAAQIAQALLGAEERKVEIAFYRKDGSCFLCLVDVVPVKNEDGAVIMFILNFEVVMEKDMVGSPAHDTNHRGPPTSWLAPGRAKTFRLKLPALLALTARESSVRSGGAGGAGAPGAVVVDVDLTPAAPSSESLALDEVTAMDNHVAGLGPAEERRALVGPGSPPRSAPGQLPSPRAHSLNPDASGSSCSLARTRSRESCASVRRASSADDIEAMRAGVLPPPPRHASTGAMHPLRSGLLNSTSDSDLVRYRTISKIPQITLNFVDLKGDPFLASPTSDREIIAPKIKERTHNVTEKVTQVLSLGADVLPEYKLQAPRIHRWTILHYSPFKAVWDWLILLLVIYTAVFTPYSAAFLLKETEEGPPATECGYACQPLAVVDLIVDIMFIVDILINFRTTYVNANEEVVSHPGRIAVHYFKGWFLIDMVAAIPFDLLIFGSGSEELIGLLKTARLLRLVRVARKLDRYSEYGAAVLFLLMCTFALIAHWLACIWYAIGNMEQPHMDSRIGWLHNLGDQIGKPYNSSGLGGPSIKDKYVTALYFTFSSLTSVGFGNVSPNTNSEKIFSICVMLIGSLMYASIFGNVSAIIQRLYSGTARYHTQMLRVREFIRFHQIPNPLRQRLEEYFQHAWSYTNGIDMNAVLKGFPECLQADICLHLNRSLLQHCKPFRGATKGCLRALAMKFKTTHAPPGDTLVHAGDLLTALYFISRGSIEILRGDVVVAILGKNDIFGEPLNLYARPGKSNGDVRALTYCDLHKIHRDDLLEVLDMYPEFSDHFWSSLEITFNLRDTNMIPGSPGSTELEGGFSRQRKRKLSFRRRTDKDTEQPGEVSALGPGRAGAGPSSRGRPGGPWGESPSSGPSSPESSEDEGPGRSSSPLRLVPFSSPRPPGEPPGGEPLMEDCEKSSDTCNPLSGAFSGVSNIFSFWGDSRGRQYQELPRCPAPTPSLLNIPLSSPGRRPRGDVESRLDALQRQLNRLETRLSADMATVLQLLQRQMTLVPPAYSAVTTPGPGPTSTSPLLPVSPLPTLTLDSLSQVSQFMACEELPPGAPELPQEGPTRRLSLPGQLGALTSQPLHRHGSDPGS

| Compound | hERG current change (%, negative = inhibition) at 1uM |
| --- | --- |
| Cc1cc(OCC(=O)NCC(c2cccs2)N2CCOCC2)ccc1C(C)C (centres unmarked) | -6.69% |
| O=C(c1cccc(Cl)c1)N1CCC(C(=O)N2CCN(Cc3ccccc3)CC2)CC1 | -8.46% |
| C=C(C)COc1ccc(-c2nc(N)nc(C(F)(F)F)c2-c2ccc(OC)cc2)c(O)c1 | 19.8% |
| COc1cc(/C=N/NC(=O)c2ccncc2)ccc1O | 4.04% |
| CCOc1ccc2[nH]c(=O)c(CN(CCc3ccccc3)C(=O)N3CCCC3)cc2c1 | -4.91% |
| O=C(Nc1ccc(Br)cc1)C1Cc2ccccc2O/C1=N\O (centres unmarked) | 7.28% |
| O=C(NCc1ccc(F)cc1)C1CCN(C(=O)NCc2ccccc2)CC1 | 19.1% |
| COc1cc(C)c(Cl)cc1S(=O)(=O)NCc1ccco1 | 8.11% |
| COCCSc1nnc(NC(=O)COc2ccc3c(c2)OCO3)s1 | 14.1% |
| COc1cc(CN2CCN(C(=O)c3ccc(-c4ccccc4)cc3)CC2)cc(OC)c1OC.O=C(O)C(=O)O | -0.534% |
| CCC(=O)c1ccc(OCC(=O)NC2(C#N)CCCCC2)cc1 | 7.56% |
| CS(=O)(=O)Nc1ccc(C(=O)Nc2ccc(S(=O)(=O)Nc3nccs3)cc2)cc1 | 11.5% |
| O=C(/C=C/c1cc[n+](CC(=O)c2ccc3cccc4c3c2CC4)cc1)c1ccc2cccc3c2c1CC3.[Br-] | 9.17% |
| Cn1cc(CCC(=O)N2CCCC(Nc3ccc(F)cc3)C2)cn1 (centres unmarked) | 13.2% |
| O=C(Nc1nccs1)c1ccc(COc2ccccc2)o1 | 12.8% |
| CCCOc1ccc(CCc2n[nH]c(=S)n2Cc2ccccc2)cc1 | -1.28% |
| CCC1CN(C(=O)N2CCC(C(=O)NCc3ccccc3OC)CC2)c2cc(C)ccc2O1 (centres unmarked) | 21% |
| CS(=O)(=O)N1CCN=C1SCc1ccc([N+](=O)[O-])cc1 | -1.47% |
| CCOC(=O)N1CCN(Cc2cn3ccccc3n2)CC1.O=C(O)C(=O)O | 19.5% |

| Compound | hERG current change (%, negative = inhibition) at 1uM |
| --- | --- |
| Cc1nnc(N2CCCCC2)c2ccccc12 | 4.96% |
| O=C(c1ccc(N2CCCCC2)c([N+](=O)[O-])c1)N(Cc1ccccc1)c1ccccn1 | -0.948% |
| CCCS(=O)(=O)N1CCC(C(=O)N2CCc3ccccc3C2)CC1 | 8.35% |
| O=C(O)C(Cc1c[nH]c2ccccc12)NS(=O)(=O)c1ccc(Br)cc1 (centres unmarked) | 11.9% |
| CCSc1cnn(-c2ccccc2)c(=O)c1SCC | 7.95% |
| O=c1cccc2n1CC1CC2CN(Cc2ccc3c(c2)OCO3)C1 (centres unmarked) | -2.39% |
| O=C(O)C(=O)O.O=C(c1cccc(F)c1)N1CCN(C2CCCCC2)CC1 | -22.6% |
| O=C(COC(=O)/C=C/C(=O)OCC(=O)Nc1ccccc1F)Nc1ccccc1F | 14.3% |
| CSc1ccc(CN2CCN(C(=O)COc3cccc(C)c3)CC2)cc1 | 5.03% |
| CC(C)C(C)NC(=O)CSc1nc2scc(-c3ccco3)c2c(=O)n1-c1ccccc1 (centres unmarked) | 11% |
| O=C(CCCCCN1C(=O)CCC1=O)Nc1ccc(Br)cc1F | 12.7% |
| CC(=O)Nc1ccc(OCC(O)Cn2c3ccccc3c3ccccc32)cc1 (centres unmarked) | 15.3% |
| CC(=O)c1cccc(NC(=O)NC2CCCCC2)c1 | -7.14% |
| Cn1c2ccccc2c(=O)c2c(=O)n(-c3ccc(F)cc3)c(-c3cccs3)nc21 | 14.4% |
| O=C(CN1C(=O)S/C(=C/c2ccccn2)C1=O)N1CCOCC1 | 18.8% |
| C=CCNC(=O)c1ccccc1Cl | 7.48% |
| O=C(Nc1ccc(Cl)c(Cl)c1)c1cccnc1 | 8.6% |
| COc1ccc(CCNC(=O)C2CC2)cc1OC | 1.11% |
| COc1ccc(Cl)cc1C(=O)n1nc(C)cc1C | 9.51% |

| Compound | hERG current change (%, negative = inhibition) at 1uM |
| --- | --- |
| Cc1cc(NC(=O)CN(C)C)c([N+](=O)[O-])cc1C | -14.2% |
| COc1ccccc1C(=O)Nc1cccc(N(C)S(C)(=O)=O)c1 | 20.1% |
| O=C(NCC1OCCCN1S(=O)(=O)c1cc(F)ccc1F)C(=O)NC1CCCCCC1 (centres unmarked) | 13.1% |
| Nc1nc(CSc2nc3ccccc3[nH]2)nc(N2CCOCC2)n1 | 13.5% |
| O=S(=O)(NC1CCCCC1N1CCC(O)CC1)c1ccccc1 (centres unmarked) | 12.7% |
| Cc1cccc(N2C(=O)CC(Sc3nccc(C)n3)C2=O)c1 (centres unmarked) | 14.4% |
| Cc1ccccc1CCN(C(=O)CN1C(=O)c2ccccc2S1(=O)=O)C(C(=O)NCC1CCCO1)c1ccncc1 (centres unmarked) | 9.03% |
| O=C(NC1CCCC1)C(c1ccc(F)cc1)N(Cc1ccccc1Cl)C(=O)CCl (centres unmarked) | 1.43% |
| O=C(Nc1ccccc1C(=O)NCCCN1CCOCC1)c1ccc(F)cc1 | 9.57% |
| COc1ccccc1CN1CC(C(=O)NCc2ccc(C)c(F)c2)CCC1=O (centres unmarked) | 8.01% |
| Cn1nnc(NC(=S)NC(=O)c2cccc3c(Br)cccc23)n1 | 20.2% |
| COc1ccc(OC)c(C(=O)COC(=O)CN2C(=O)NC3(CCCCC3C)C2=O)c1 (centres unmarked) | 2.42% |
| O=C(O)/C(=C\c1ccco1)NC(=O)c1ccc(Br)o1 | 9.58% |
| CCn1cc(CCC(=O)NC2CCCC2)c2ccccc21 | 12.4% |
| Br.Cc1cc(C)nc(/N=C2/NC(=O)CS2)n1 | 8.58% |
| CCCN(CCC)C(=O)C1CCCN(S(=O)(=O)c2ccc3c(c2)oc(=O)n3C)C1 (centres unmarked) | 10.6% |
| CC(C)C(NC(=O)c1ccc2c(c1)OCCO2)c1nc2ccccc2[nH]1 (centres unmarked) | 11.7% |
| O=C(C1=C[C@@H](C2CCCCC2)C[C@@H](OCc2ccc(CO)cc2)O1)N1CCN(Cc2ccccc2)CC1 | 3.82% |
